Laboratory results reported in patent US9693990B2, “Use of rhodamine dyes to reduce alveolar surface tension” (THE TRUSTEES OF THE STEVENS INSTITUTE OF TECHNOLOGY, priority 2011, dated 2017).
Read-outs that look alike come from different tables or passages of the source.

Tests used:
[1] = system: flooded alveoli, local edema model, isolated rat lung; test: Ventilation-induced flooded alveolar clearance, local edema model
Experimental: Darker areas, such as areas 38, indicate aerated alveoli. […] The micrographs and graph of FIGS. 10C and 10D show the results of the same experiment replicated in a global permeability edema model with inclusion of fluorescein (36 μM) or RWT (2 μM) in the perfusate. In all micrographs of FIGS. 10A and 10C, exemplary flooded alveoli are shown as a lighter gray than aerated alveoli.

[2] = system: flooded alveoli of the isolated rat lung; test: Surface tension in flooded alveoli by the Laplace relation, local alveolar edema model, isolated unperfused rat lung; settings: for Liquid Phase Pressure / Meniscus Radius: ± SD; for effect on meniscus radius and liquid phase pressure: 1 μM RWT or SRB in about 5% BSA flooding solution
[3] = SRB alone; cited from earlier work
[4] = cited from earlier work
[5] = cited from earlier work; remark: listed apart in the source
mammalian cell [6] = settings: cited from earlier work
[7] = 10 μM and 1.7 mM; SRB of unknown purity; cited from earlier work
cultured fetal rat cells = settings: SRB at 1 to 2 mM, cited from earlier work
pregnant rats [8] = settings: 2000 mg/kg SRB to pregnant rats; cited from earlier work
mature rats = settings: 1000 mg/kg/day, greater than 99% purity SRB, 13 weeks; cited from earlier work
pregnant rats [9] = settings: 1000 mg/kg/day, greater than 99% purity SRB, 12 days; cited from earlier work
mice = settings: one-time 2000 mg/kg, greater than 90% purity SRB; cited from earlier work
rats = settings: diet of 5% of greater than 99% purity SRB over two years; cited from earlier work
[10] = only such study; tested SRB concentration not stated; cited from earlier work
[11] = system: alveolar-capillary barrier in heterogeneously flooded regions of the isolated, perfused rat lung; test: Ventilation injury of the alveolar-capillary barrier (alveolar liquid fluorescence, injury score), isolated perfused rat lung; settings: 5% BSA, 5% fibrinogen or normal saline alone, with or without 1 μM SRB; PEEP 15 cmH2O, tidal volume 6 ml/kg
[12] = 25-80% of the LD50 over 1-5 days; cited from earlier work
mammalian cell [13] = settings: 4 mM; purity not known; cited from earlier work
[14] = PALV=15 cmH2O, 5% BSA flooding, BCECF 31 μM, fluorescein 31 μM, calcein red-orange AM 19 μM, SRG 0.9 μM
[15] = about 2 μM to about 10 μM, SRB of unknown purity
[16] = alveolar pressure 5 cmH2O, pooled group SRB or RWT added (n = 8)
[17] = alveolar pressure 15 cmH2O, pooled group SRB or RWT added (n = 40)

Compound: 2′,7′-bis-(2-carboxyethyl)-5-(and -6)-carboxyfluorescein [BCECF, reference compound]
- flooded alveolar clearance during ventilation ([1]; local edema model, 4% BSA in normal saline with BCECF 25 μM or RWT 0.8 μM): do not
- effect of dye on surface tension ([2]; PALV=5 cmH2O, alveoli flooded with 5% fatty acid-bound BSA in normal saline): increased surface tension above control
- effect of dye on surface tension [2, 14]: do not alter surface tension

Compound: CCN(CC)c1ccc2c(-c3ccc(S(=O)(=O)O)cc3S(=O)(=O)[O-])c3ccc(=[N+](CC)CC)cc-3oc2c1 [SRB, sulforhodamine B]
- alveolar clearance (expected) ([1]; not tested for SRB, inferred from RWT): expected to promote alveolar clearance to the same degree as RWT
- concentration at which SRB on its own is surface active [3]: greater than 1.3 mM
- LD50 ([4]; SRB of unknown purity, European Commission committee report 2008): exceed 1000 mg/kg
- genotoxicity ([5]; 9 μmol/plate, SRB of greater than 99% purity): negative
- genotoxicity [5, 15]: negative
- genotoxicity (mammalian cell [6]; 9 mM, SRB of greater than 99% purity): negative
- genotoxicity (mammalian cell [6]; [15]): negative
- genotoxicity [7]: negative
- cytotoxicity (cultured fetal rat cells): not found to be of cytotoxic concern
- cytotoxicity in cultured fetal rat cells (cultured fetal rat cells; day four and day seven after plating): low level toxicity in cultured fetal rat cells at day four after plating that decreased by day seven
- DNA damage in cells biopsied from dams or embryos (pregnant rats [8]): no evidence of DNA damage
- adverse effects (mature rats): no observable adverse effects
- adverse effects in dams or fetuses (pregnant rats [9]): no observable adverse effects
- rate of generation of micronuclei (mice): did not increase the rate of generation of micronuclei
- carcinogenicity (rats): not carcinogenic
- genotoxicity [10]: tested positive for genotoxicity
- effect on surface tension ([2]; 1 nM SRB in 1.8 or 2.7% albumin solution): not found to be effective
- surface tension of the flooding liquid lowered by ([2]; 1 nM to 1 μM SRB, about 5% BSA + 31 μM fluorescein, PALV 15 cmH2O): at least 23%
- effect on surface tension ([2]; 1.8% albumin solution): ineffective
- effect on surface tension ([2]; 2.7% albumin solution, 1 nM SRB, PALV=15 cmH2O): lost efficacy
- effect on surface tension ([2]; 2.7% albumin solution, 1 μM SRB): found to lower surface tension
- effect on surface tension ([2]; 4.6% 70 kD dextran solution, 1 μM SRB, PALV 15 cmH2O): loses its efficacy
- effect on surface tension ([2]; 4.6% fibrinogen solution, 1 μM SRB, PALV 15 cmH2O): shows a tendency to lower surface tension, but does not do so significantly
- effect on surface tension ([2]; 4.6% to 12% albumin solution, 1 nM and 1 μM SRB, PALV=15 cmH2O): effectively lowered surface tension
- effect on surface tension ([2]; SRB 1 nM to 100 nM, both 4.6% albumin solution and rat plasma): effectively lower surface tension
- effect on surface tension of the flooding liquid ([2]; SRB below 1 nM and above 1 μM, about 5% BSA, PALV 15 cmH2O): did not significantly lower the surface tension
- effect on surface tension ([2]; absence of albumin, 1 nM and 1 μM SRB, PALV=15 cmH2O): does not lower surface tension
- Liquid Phase Pressure [2, 16]: 1.6 ± 0.7 cmH2O
- Meniscus Radius [2, 16]: 14.5 ± 3.9 μm
- effect on meniscus radius and liquid phase pressure ([2]; alveolar pressure 15 cmH2O): decreased meniscus radius without altering liquid phase pressure
- Liquid Phase Pressure [2, 17]: 2.0 ± 0.7 cmH2O
- Meniscus Radius [2, 17]: 14.6 ± 1.7 μm
- injury score with different solutes [11]: albumin is necessary for SRB to lessen injury

Compound: CCN=c1cc2oc3cc(NCC)c(C)cc3c(-c3ccc(S(=O)(=O)O)cc3S(=O)(=O)[O-])c-2cc1C.[Na+] [SRG, sulforhodamine G, reference compound]
- effect of dye on surface tension [2, 14]: do not alter surface tension

Compound: CCN(CC)c1ccc2c(-c3ccc(C(=O)[O-])cc3C(=O)[O-])c3ccc(=[N+](CC)CC)cc-3oc2c1.[Cl-].[Na+].[Na+] [RWT, rhodamine WT]
- LD50 ([4]; dye purity not known): 430 mg/kg
- genotoxicity ([5]; about 2 to about 10 μM and 4 mM, purity not known): positive
- genotoxicity (mammalian cell [6]; 12 mM, purity not known): negative
- genotoxicity (mammalian cell [6]; about 2 to about 10 μM, purity not known): positive
- histopathologic changes, micronuclei generation, sperm abnormalities [12]: did not cause histopathologic changes, increase the rate of micronuclei generation or increase the rate of occurrence of sperm abnormalities
- genotoxicity (mammalian cell [13]): negative
- Liquid Phase Pressure [2, 16]: 1.6 ± 0.7 cmH2O
- Meniscus Radius [2, 16]: 14.5 ± 3.9 μm
- effect on meniscus radius and liquid phase pressure ([2]; alveolar pressure 15 cmH2O): decreased meniscus radius without altering liquid phase pressure
- Liquid Phase Pressure [2, 17]: 2.0 ± 0.7 cmH2O
- Meniscus Radius [2, 17]: 14.6 ± 1.7 μm

Compound: calcein red-orange AM [reference compound]
- effect of dye on surface tension [2, 14]: do not alter surface tension
